# Experimental data from article PMC4336329 (PLoS ONE, 2015).
# Among all 310,000 compounds or so, about 2,200 (0.71%) showed an effect of 50% or more. The effect is printed as a negative number. The list shows a part of the results.
# Target: human ether-à-go-go-related gene (hERG) potassium channel (human, UniProt Q12809)
# Test: primary screen, population patch clamp on CHO cells stably expressing hERG
# Sequence of human ether-à-go-go-related gene (hERG) potassium channel (Q12809 whole entry, looked up): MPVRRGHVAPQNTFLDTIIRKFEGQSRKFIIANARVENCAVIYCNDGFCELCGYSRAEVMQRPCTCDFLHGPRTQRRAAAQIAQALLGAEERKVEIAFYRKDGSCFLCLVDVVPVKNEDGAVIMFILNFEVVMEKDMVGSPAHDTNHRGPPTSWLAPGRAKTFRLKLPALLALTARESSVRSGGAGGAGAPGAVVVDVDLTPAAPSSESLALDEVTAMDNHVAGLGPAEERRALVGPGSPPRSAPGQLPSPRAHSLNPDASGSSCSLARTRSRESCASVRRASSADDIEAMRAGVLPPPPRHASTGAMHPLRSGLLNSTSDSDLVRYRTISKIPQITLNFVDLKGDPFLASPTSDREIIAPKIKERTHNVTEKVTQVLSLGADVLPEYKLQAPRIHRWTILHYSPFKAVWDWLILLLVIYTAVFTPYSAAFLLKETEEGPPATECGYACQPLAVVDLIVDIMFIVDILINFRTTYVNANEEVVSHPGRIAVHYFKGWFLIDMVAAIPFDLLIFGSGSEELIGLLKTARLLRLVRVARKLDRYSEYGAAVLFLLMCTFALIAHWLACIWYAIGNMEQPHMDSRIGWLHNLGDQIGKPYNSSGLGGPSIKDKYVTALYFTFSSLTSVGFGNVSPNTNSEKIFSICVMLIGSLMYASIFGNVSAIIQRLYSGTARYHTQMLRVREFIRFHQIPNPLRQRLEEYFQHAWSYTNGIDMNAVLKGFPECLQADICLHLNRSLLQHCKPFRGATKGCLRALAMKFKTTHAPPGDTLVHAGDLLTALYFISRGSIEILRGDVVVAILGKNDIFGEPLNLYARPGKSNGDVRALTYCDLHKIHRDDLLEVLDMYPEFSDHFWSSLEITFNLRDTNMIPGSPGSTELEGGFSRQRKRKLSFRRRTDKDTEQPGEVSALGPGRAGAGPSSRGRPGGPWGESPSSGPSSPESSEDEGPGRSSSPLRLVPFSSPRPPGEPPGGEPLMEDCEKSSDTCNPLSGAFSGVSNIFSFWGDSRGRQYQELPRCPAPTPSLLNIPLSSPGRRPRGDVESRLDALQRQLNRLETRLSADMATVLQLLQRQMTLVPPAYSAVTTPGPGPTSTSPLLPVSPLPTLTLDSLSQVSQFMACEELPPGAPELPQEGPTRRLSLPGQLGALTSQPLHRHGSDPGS
row,SMILES,"hERG current change (%, negative = inhibition) at 1uM [%]"
1,CCC(Sc1nc(C)cc(=O)[nH]1)C(=O)Nc1nnc(C)s1 (stereo not shown),14.7
2,CN(Cc1c(C(=O)N2CCCCCCC2)nc2ccc(Cl)cn12)C1CCOC1 (stereo not shown),17.6
3,Cc1ccc(OCCn2cnc3cc([N+](=O)[O-])ccc3c2=O)cc1,5.65
4,Cc1cc(C(=O)CN2CC(C)OC(C)C2)c(C)n1-c1ccccc1 (stereo not shown),11.6
5,O=C(NCC1CCCO1)c1cc(-c2ccncc2)nc2ccc(S(=O)(=O)N3CCOCC3)cc12 (stereo not shown),-16.4
6,CCOC(=O)[C@H]1[C@H]2COc3ccccc3[C@@H]2N2C(=O)c3cc(OC)c(OC)cc3NC(=O)[C@@]12C,5.31
7,COC(=O)c1ccc(S(=O)(=O)NCc2ccc(S(N)(=O)=O)cc2)n1C,14.3
8,Cc1cccc(C)c1NC(=O)C1c2ccccc2Oc2ccccc21,11.8
9,COc1ccc(NC(=O)CSc2nc3ccccc3c(=O)n2CCC(=O)N2CCCCC2)cc1,-16.5
10,CN=C(Nc1cccnc1)c1cccc(C(F)(F)F)c1,16.7
11,CC(C)(C)C1CCC(C(=O)Nc2ccc(N3CCOCC3)cc2N2CCOCC2)CC1 (stereo not shown),0.486
12,COc1ccc(-c2noc(N3CCC(C(=O)N(C)c4ccccc4C)CC3)n2)cc1,-3.76
13,CCCCNC(=O)/C(=C\c1ccc([N+](=O)[O-])o1)NC(=O)c1ccccc1,-6.47
14,COC(=O)C1=C(C)N(CCc2c[nH]c3ccc(OC)cc23)C(=O)C1,4.46
15,CCOCCn1c(SCc2ccccc2)nc2c1c(=O)[nH]c(=O)n2C,2.64
16,Cc1nn(C)c(C)c1CN(C)C(=O)c1cc2n(n1)C(C(F)(F)F)CC(c1cccs1)N2 (stereo not shown),7
17,COc1ccccc1Nc1nc2nonc2nc1N1CCC(C)CC1,11.1
18,O=C(NCC(c1cccnc1)N1CCN(c2ccc(F)cc2)CC1)Oc1ccccc1 (stereo not shown),-2.05
19,CC(OC(=O)Cc1c[nH]c2ccccc12)C(=O)c1ccccc1 (stereo not shown),10.7
20,CCN(CC)c1ccc(/C=N/N2C(=O)c3ccccc3C2=O)c(O)c1,-2.93
21,Cc1ccc(C2=Nc3ccccc3SC(c3cccc([N+](=O)[O-])c3)C2)cc1 (stereo not shown),12
22,CCN(Cc1ccccc1)C(=O)CSc1nc(C)cc(C)c1C#N,4.25
23,CC1(C(=O)O)CCC(C(=O)NC2CCCCCC2)C1(C)C (stereo not shown),-0.0323
24,CN1CCc2nc(SCC(=O)Nc3ccc(OC(F)(F)F)cc3)c(C#N)c(-c3cccs3)c2C1,9.86
25,O=C(NNC(=O)c1ccccc1Cl)c1ccco1,11.3
26,N#Cc1c(-c2ccccc2)oc(=O)c2ccccc12,8.23
27,Cn1c(C(=O)N[C@@H](Cc2ccccc2)C(=O)O)cc2cc(Cl)ccc21,13.2
28,Cc1nn(CCc2nn[nH]n2)c2nc(-c3ccc(Br)cc3)cc(C(F)(F)F)c12,14.4

row,SMILES,"hERG current change (%, negative = inhibition) at 1uM [%]"
1,Cc1ccc(S(=O)(=O)NCC(c2ccco2)N2CCc3ccccc3C2)cc1 (stereo not shown),2.72
2,O=C(N=NC(=O)c1ccc2c(O)n(C3CCCCC3)c(O)c2c1)c1cccnc1,11.4
3,COCCCNC(=O)c1ccc2nc(Cc3ccc(OC)cc3)oc2c1,10.8
4,COc1ccc(-c2[nH]c(-c3ccc(C)cc3)nc2SCC(=O)Nc2nccs2)cc1,21.6
5,CCOc1cc(/C=C\c2[nH]c(=O)[nH]c(=O)c2[N+](=O)[O-])ccc1OC(C)CC (stereo not shown),6.22
6,CC(=O)NC(Cc1ccccc1)C(=O)NC1CCN(c2ncccc2[N+](=O)[O-])CC1 (stereo not shown),10.5
7,Cc1ccc(S(=O)(=O)Nc2ccc(C(=O)NCc3ccccn3)cc2)cc1,0.847
8,CCOC(=O)Cn1c(=O)oc2cc(S(=O)(=O)N3CCc4ccccc43)ccc21,4.82
9,CN(C)c1ccnc2sc3c(=O)n(-c4ccccc4)cnc3c12,0.304
10,CCOc1ccc(NC(=O)C2CC(=O)N3CCCN=C3S2)cc1 (stereo not shown),13.4
11,CN(CC(=O)NCc1ccccn1)S(=O)(=O)c1ccc(Br)cc1,4.07
12,Cc1cc(C(=O)NC2CCCc3c2cnn3-c2cc(F)cc(F)c2)nn1C (stereo not shown),8.75
13,Cc1ccc(NC(=O)COC(=O)c2cc(Cl)cc(Cl)c2)c(Br)c1,-4.16
14,O=c1c2[nH]c3cccc(Cl)c3c2ncn1Cc1ccncc1,-4.11
15,Cc1c(C)c2c(OCC(=O)Nc3cccnc3)cc3c(c2oc1=O)CCC(C)(C)O3,11.6
16,Cc1cc(C(N)=O)nn1-c1c(Cl)cc(Cl)cc1Cl,11.7
17,CCOC(=O)c1c(C)[nH]c(O)c1C=Nc1ccc(Cl)cc1,9.07
18,COc1ccc2c(c1)SC(C)CC2=O (stereo not shown),2.94
19,CCCCCOc1cccc(C2C(C(=O)c3cccs3)=C(O)C(=O)N2CCN2CCOCC2)c1 (stereo not shown),9.99
20,CCc1ccc(OCc2nnc(-c3ccccc3Br)o2)cc1,10.6
21,COCCCN(C(=S)Nc1ccc(OC)cc1)C(C)c1ccncc1 (stereo not shown),3.22
22,O=C(c1cc2cc(Cl)ccc2[nH]1)N1CCN(c2ccccc2F)CC1,14.6
23,COc1ccc(CC(=O)NC2CC(C)(C)NC(C)(C)C2)cc1,17.3
24,CC(=O)Nc1ccc(N2CCCC2)cc1,14.7
25,O=S(=O)(c1ccc(Cl)cc1)N1CCC(O)(CN2CCN(Cc3ccccc3)CC2)CC1,-75.6
26,CC1=CN2C(=NC(=O)CC2(C)C(=O)N(CC(=O)NC2CCCC2)c2cc(C)cc(C)c2)C=C1 (stereo not shown),12.9
27,CN(CC(=O)Nc1ccc(Cl)c(C(F)(F)F)c1)C(=O)/C=C/c1ccco1,3.73
